The other results are listed elsewhere or left out. The main result of the screen is listed elsewhere. These columns were measured beside it and carry no call.
Tests used:
Experiment in all cases: Primary Screen for Target Class Profiling of Small Molecule Inhibitors of Methyltransferases
[1] = target: Glycine N-methyltransferase (Homo sapiens) (UniProt Q14749); conditions: purified enzyme, MTase-Glo SAH luminescence; measured here: GNMT inhibition; at 40 µM; stronger effect = lower value
In short: (§1)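 Each enzyme was reacted with SAM and its substrate, with compounds tested once at 40 uM; SAH formed was read by MTase-Glo luminescence.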

[2] = target: Guanidinoacetate N-methyltransferase (Homo sapiens) (UniProt Q14353); conditions: purified enzyme, MTase-Glo SAH luminescence; measured here: GAMT inhibition; at 40 µM; stronger effect = lower value
In short: as §1

[3] = target: Histamine N-methyltransferase (Homo sapiens) (UniProt P50135); conditions: purified enzyme, MTase-Glo SAH luminescence; measured here: HNMT inhibition; at 40 µM; stronger effect = lower value
In short: as §1

[4] = target: Nicotinamide N-methyltransferase (Homo sapiens) (UniProt P40261); conditions: purified enzyme, MTase-Glo SAH luminescence; measured here: NNMT inhibition; at 40 µM; stronger effect = lower value
In short: as §1

[5] = target: Phenylethanolamine N-methyltransferase (Homo sapiens) (UniProt P11086); conditions: purified enzyme, MTase-Glo SAH luminescence; measured here: PNMT inhibition; at 40 µM; stronger effect = lower value
In short: as §1
% is set by controls: 0 for no effect and ±100 for the full control effect.

Row | SMILES | activity change, negative = inhibition [1] [%] | activity change, negative = inhibition [2] [%] | activity change, negative = inhibition [3] [%] | activity change, negative = inhibition [4] [%] | activity change, negative = inhibition [5] [%]
1 | CC(C)OCCCNc1nc2c(S(=O)(=O)c3ccc(C(C)C)cc3)nnn2c2ccccc12 | -11.8 | -0.684 | -9.84 | -14.6 | -10.8
2 | Cc1ccc2c(cnn2C(=O)CCCC(=O)N2CCN(c3cccc(Cl)c3)CC2)c1 | 7.94 | 5.4 | 8.91 | 2.58 | 0.786
3 | CCCn1c(=O)c2ccccc2n2c(SCC(=O)Nc3ccccc3C)nnc12 | -6.83 | 1.52 | 3.57 | -6.03 | -1.84
4 | CN1C(=O)CC[C@]2(C(=O)N3CCN(c4ccccc4)CC3)CCCC[C@@H]12 | -3.6 | -4.62 | -1.9 | -4.91 | -17.7
5 | Cn1cccc1-c1noc(C2CCN(C(=O)CCn3cnc4ccccc43)C2)n1 (stereo not given) | -4.42 | 1.1 | -1.53 | -8.46 | -3.94
6 | COc1ccccc1CNC(=O)c1ccc2c(=O)nc3c(-c4ccc(C)cc4)n[nH]n3c2c1 | -9.71 | -0.04 | -5.74 | -5.18 | -8.48
7 | CC(C)NC(=O)Cn1nc2n(C(C)C)c(=O)c3ccc(C(=O)NC4CCCC4)cc3n2c1=O | 1.11 | 3.15 | 2.36 | 1.25 | 3.12
8 | CC1(C)CC2C(O)c3cocc3CC(C)(O)C2C1 (stereo not given) | 3.52 | 1.3 | 9.24 | -10.4 | 5.44
9 | C[S+](=O)([O-])c1ccc(-c2cnc3n[nH]c(-c4ccccc4)c3n2)cc1 | -44 | -28.7 | -46.2 | -32.7 | -14.2
10 | Cc1ccccc1C(CC(=O)N1CCSCC1)c1ccccc1 (stereo not given) | -0.311 | -3.74 | 2.22 | -5.8 | 4.97
11 | Cn1c(=O)c2ccc(C(=O)NC3CCCC3)cc2n2c(SCC(=O)c3ccc(F)cc3)nnc12 | 0 | -3.4 | 4 | -3.64 | -3.84
12 | CCOC(=O)c1ccc(N2C(=O)Cn3cccc3C2C(=O)NC2CCCCC2C)cc1 (stereo not given) | -0.267 | 0 | 3.21 | 10.2 | -1.39
13 | O=C(NCc1ccc(Cl)cc1)c1cc2cccnn2n1 | -4.56 | -2.8 | -1.16 | -8.69 | -1.1
14 | COCCOCc1nc(C2CCCN2C(=O)Nc2ccc(F)cc2F)no1 (stereo not given) | -0.574 | 1.01 | -0.544 | 1.75 | -0.206
15 | O=C(CN1CCCCC1)N1CCCC(N2CCN(Cc3ccc4c(c3)OCO4)CC2)C1 (stereo not given) | 67.8 | -12.4 | -10.6 | -15.4 | -9.46
16 | COc1ccc(C(=O)Cn2nc3n(Cc4ccc(C)cc4)c(=O)c4ccccc4n3c2=O)cc1 | 6.07 | 0.527 | 5.92 | 6.07 | 4.36
17 | O=C(C1CC1)N1C[C@@H]2OCC(=O)N(Cc3ccc(F)cc3)[C@@H]2C1 | -0.115 | -1.94 | -1.55 | -3.17 | 3.71
18 | CC(=O)N1CCCC(c2nc(-c3ccc4nc[nH]c4c3)no2)C1 (stereo not given) | -6.22 | -7.11 | -3.54 | -3.63 | -3.04
19 | CCC(C)NC(=O)Cn1nc2n(c1=O)CCCCC2 (stereo not given) | -2.06 | -4.85 | 0.326 | -8.65 | -3.22
20 | CCCn1c(=O)c2cc(Cl)ccc2n2c(=O)n(CC(=O)c3ccc(OC)c(OC)c3)nc12 | 3.12 | 0 | 9.71 | 7.01 | 3.92

Row | SMILES | activity change, negative = inhibition [1] [%] | activity change, negative = inhibition [2] [%] | activity change, negative = inhibition [3] [%] | activity change, negative = inhibition [4] [%] | activity change, negative = inhibition [5] [%]
21 | CN1C(=O)c2cc(C(=O)NCCc3ccccc3)nn2CC1(C)C(=O)NCc1ccccc1 (stereo not given) | 4.9 | 0 | 0.21 | 8.51 | 0.82
22 | C[C@](Cc1ccc(O)c(O)c1)(NN)C(=O)O | -53.5 | 2.6 | -1.55 | -8.63 | 1.08
23 | c1ccc(CCN2CCNc3cc(NCc4cccnc4)ncc3C2)cc1 | -8.45 | -3.14 | -89.1 | -19.2 | -25.4
24 | CCOC(=O)c1cc2n(n1)CC(C)(C(=O)NC1CCCCC1)N(c1ccc(Cl)cc1)C2=O (stereo not given) | 1.71 | 4.08 | 3.99 | -2.53 | -1.91
25 | O=C(NCC1CCCCCC1)C1CCN(Cc2ccccc2-c2cccnc2)CC1 | -6.43 | -4.96 | -19.9 | -15.8 | -9.17
26 | CCC(C)NC(=O)c1ccc2c(=O)n(CC(C)C)c3nn(Cc4ccccc4F)c(=O)n3c2c1 (stereo not given) | 2.3 | 0 | 6.87 | -0.527 | 4.7
27 | c1ccc2c(c1)CC(N1CCN(c3cccc4c3OCCO4)CC1)C2 | -8.93 | 1.27 | -0.126 | -11.5 | 2.24
28 | COC(=O)C(Cc1c[nH]c2ccccc12)NC(=O)c1cc(-c2ccc(OC)c(OC)c2)oc1C (stereo not given) | -9.34 | 4.9 | 3.04 | 5.77 | -2.26
29 | CCOc1ccc(S(=O)(=O)n2c(C)nc3ccccc32)cc1 | 3.37 | 2.57 | -2.04 | -15.2 | -4.08
30 | COC[C@H]1CCCN1c1nc(CCN)nc2sc(C)c(C)c12 | -2.83 | -4.69 | -21.7 | -22 | -7.99
31 | CC1(C(=O)NC2CCCC2)Cn2c(ccc2-c2ccccc2)C(=O)N1Cc1ccccc1Cl (stereo not given) | -0.807 | 3.65 | 0.02 | -2.19 | 0.205
32 | C=C1C(OC(C)=O)CCC2(C)CC3(OC)OC(=O)C(C)=C3CC12 (stereo not given) | -3.95 | -11.4 | -7.02 | -24.1 | -1.8
33 | COc1ccc(Nc2nc3c(S(=O)(=O)c4ccc(C)cc4)nnn3c3ccccc23)cc1 | -5.84 | 0.565 | 6.48 | -3.73 | -3.69
34 | COCCCNC(=O)C1(C)Cn2nc(-c3ccccc3)cc2C(=O)N1c1ccccc1C (stereo not given) | 1.29 | 1.67 | 3.44 | 1.45 | -2.35
35 | CC(C)CCN1C(=O)c2ccc(-c3ccco3)n2CC1(C)C(=O)NC1CCC(C)CC1 (stereo not given) | -18.3 | 0.567 | -1.36 | -21.2 | -1.21
36 | COc1ccc2cc3n(c2c1)CC(C)(C(=O)NC1CCCC1)N(Cc1ccc(Cl)cc1)C3=O (stereo not given) | -3.2 | 2.75 | -1.8 | -6.57 | -9.31
37 | CC1CCN(CCCNC(=O)CCc2nnc3n(Cc4ccccc4)c(=O)c4ccccc4n23)CC1 | -9.07 | 0 | -54.9 | 7.53 | -0.532
38 | Cc1ccc(CNC(=O)Cn2nc3n(CC(C)C)c(=O)c4ccccc4n3c2=O)cc1 | -1.54 | 1.9 | -2 | -6.82 | -5.78
39 | CC(C)Cn1c(=O)c2ccccc2n2c(SCC(=O)N3CCN(c4ccc(F)cc4)CC3)nnc12 | -0.799 | 0 | 6.9 | -11.3 | 4.65
40 | CC[C@H](CO)Nc1nc(Nc2cccc(-c3ccccn3)c2)c2ncn(C(C)C)c2n1 | -14.4 | -4.39 | -26.2 | -30.8 | -19.3

From PubChem BioAssay AID1745853 (National Center for Advancing Translational Sciences (NCATS), 2022)
